# Tests used:
# [1] = target: T1, human CLD18A2 (Homo sapiens, UniProt P56856); experiment: Flow cytometry binding of scFv_Fc fusion antibody to HEK293 cells stably transfected with human CLD18A2 (EC50); settings: scFv fused to human IgG1 Fc portion; for EC50: HEK293 cells stably transfected with human CLD18A2, read-out: relative binding affinity EC50 value
# T1 construct: expressed in transfected cells
# T1 sequence (P56856 1-261 isoform P56856-2): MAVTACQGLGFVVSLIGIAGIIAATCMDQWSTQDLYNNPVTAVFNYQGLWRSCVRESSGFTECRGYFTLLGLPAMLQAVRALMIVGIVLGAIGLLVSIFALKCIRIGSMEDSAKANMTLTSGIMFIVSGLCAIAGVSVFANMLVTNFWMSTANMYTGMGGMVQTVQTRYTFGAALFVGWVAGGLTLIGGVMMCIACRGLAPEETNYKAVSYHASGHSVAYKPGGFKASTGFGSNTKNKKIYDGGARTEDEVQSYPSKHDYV
# Protocol: Binding of anti-Claudin 18A2 scFv_Fc fusion antibody to HEK293 cells stably transfected with CLD18A2 was determined by flow cytometry. Experimental data was analyzed using GraphPad Prism and Guava easyCyte™ HT System instrument as described in Example 1 to obtain EC50 value.
# Expression vectors of ScFv Fc-form of the two mutants were constructed as described in Example 2, and according to the procedure of Example 2, and the experimental data was analyzed using GraphPad Prism and Guava easyCyte™ HT System instrument to obtain EC50.
# The binding activity assay was performed as described in Example 2, and experimental data was analyzed using HEK293 cells (HEK-CLD18A2) stably expressing human CLD18A2, GraphPad Prism and Guava easyCyte™ HT System instrument to obtain EC50, and the results are shown in FIG. 5.
# (5) The binding activity was tested, and experimental data was analyzed using HEK293 cells (HEK-CLD18A2) stably expressing human CLD18A2, GraphPad Prism and Guava easyCyte™ HT System instrument, and the results are shown in FIG. 6.
# The mutant hu8E5-2I of the humanized antibody hu8E5 was constructed as described in Example 3. Experimental data was analyzed using HEK293 cells (HEK-CLD18A2) stably expressing human CLD18A2, GraphPad Prism and Guava easyCyte™ HT System instrument, and the results are shown in FIG. 7.
# [2] = Molecular sieve analysis of monomeric form of scFv_Fc fusion antibody; type: physicochemical
# Protocol: The 3D model of hu8E5 was established by Discovery studio software, and the potential aggregation sites were analyzed.
# [3] = test system: HEK293 cells stably transfected with CLD18A2; experiment: Complement dependent cytotoxicity (CDC), CCK-8; type: cell-based, human; settings: antibody 20 μg/ml; serum 10%
# Protocol: (§1) Blood was collected from healthy volunteers and serum was prepared by centrifugation. A CCK-8 cell proliferation-toxicity assay kit (Dojindo, #CK04) was used. HEK293 cells stably transfected with CLD18A2 or CLD18A1 were used as target cells. The cells were washed twice, resuspended in complete medium at a density of 1×10^5 cells/ml, seeded in a 96-well culture plate at 100 μl per well and cultured overnight at 37° C. The next day, antibody was added to each well at a final concentration of 20 μg/ml, and incubate for 30 min at 37° C. in an incubator. Then, serum at a final concentration of 10% was added and incubated at 37° C. for 1.5 hours. 10 ul of CCK-8 solution was added to each well, incubated at 37° C. for 3.5 h (adjusted as appropriate), and the absorbance at 450 nm was measured with a microplate reader.
# (§2) lysis percentage is calculated as follows: Lysis percentage=(cell control well−experiment well)/cell control well−(cell control well−antibody control well)/cell control well.
# [4] = test system: HEK293 cells stably transfected with CLD18A1; experiment: Complement dependent cytotoxicity (CDC), CCK-8; type: cell-based, human; settings: antibody 20 μg/ml; serum 10%
# Protocol: as §1, §2
# [5] = test system: gastric cancer PDX tumor; experiment: Gastric cancer PDX model, antibody treatment; type: in vivo, BALB/c nude mice; settings: D56 after inoculation; vs PBS control; antibody 40 mg/kg injected 6 times, EOF injected twice
# Protocol: Establishment of a PDX model of gastric cancer: Tumors of about 3 mm×3 mm×3 mm in size were inoculated subcutaneously into the right ankle of BALB/c nude mice. The day of tumor cell inoculation was recorded as D0 days, the tumor volume was measured at D27 from the inoculation of tumor, and the mice were randomly divided into 5 groups. The specific groups are as follows: (1) PBS (phosphate buffer) control group; (2) hu8E5-2I antibody treatment group (40 mg/kg); (3) EOF treatment group (E is epirubicin: 1.25 mg/Kg; O is oxaliplatin: 3.25 mg/kg; F is 5-fluorouracil: 56.25 mg/kg)+PBS; (4) hu8E5-2I antibody (40 mg/kg)+EOF treatment group (1.25 mg/kg Epirubicin+3.25 mg/kg oxaliplatin+56.25 mg/kg 5-fluorouracil); (5) ch175D10 antibody (40 mg/kg)+EOF treatment group (1.25 mg/kg epirubicin+3.25 mg/kg oxaliplatin+56.25 mg/kg 5-fluorouracil). Dosage: EOF was administered once a week for 2 weeks; hu8E5-2I and ch175D10 antibodies were administered 3 times per week for 2 weeks.
# The tumor was inoculated for D56 days, the EOF was injected twice, the antibody was injected 6 times, and the mice were sacrificed by cervical dislocation. […] From the tumor weighing, the EOF+mAb hu8E5-2I treatment group was statistically different over the EOF+PBS group, P=0.033; while the EOF+mAb 175D10 treatment group was not statistically different over the EOF+PBS group, P=0.097.
# [6] = test system: HEK293 cells stably transfected with CLD18A2; experiment: Antibody-dependent cytotoxicity (ADCC), LDH release with human PBMC; type: cell-based; settings: antibody 20 μg/ml; effector-to-target ratio 50:1, 20:1 and 10:1
# Protocol: The ADCC activity of the humanized antibody, claudin 18A2 antibody was measured by a lactate dehydrogenase (LDH) release assay using a cytoTox 96 non-radioactive cytotoxicity assay kit (Promega, Madison, USA). Human peripheral blood mononuclear cells (PBMC) were purified from citrated whole blood by standard Ficoll-paque separation and resuspended in complete medium (RPMI-1640 culture, Gibco) supplemented with 10% fetal bovine serum (FBS, Gibco) at a density of 8×10^6 cells/ml. HEK293 cells stably transfected with CLD18A2 were used as target cells. The cells were washed twice and resuspended in a complete culture at a density of 2×10^5 cells/ml. PBMCs were incubated with an antibody at a final concentration of 20 ug/ml for 30 minutes at 37° C., and then 50 μl of antibody and effector cells were added into 50 μl of target cells at a effector-to-target ratio of 50:1, 20:1, 10:1 (total 1×10^4 target cells). […] The percentage of lysis was calculated as follows: (sample release−target spontaneous release−spontaneous release of effector cells)/(maximum release−target spontaneous release)*100; wherein the target spontaneous release is fluorescence in wells containing only target cells, spontaneous release of effector cells is fluorescence in wells containing only effector cells, and maximum release is fluorescence in wells containing target cells that have been treated with lysis buffer.
EC50 [1] [nM],increase of affinity compared with the parent antibody 8E5 [1] [fold],Molecule,proportion of the monomeric form in scFv_Fc fusion antibody [2] [%],CDC effects against HEK293-CLD18A2 [3] [%],CDC killing of cells expressing 18A1 [4],tumor inhibition rate [5] [%],ADCC effects compared with reference antibodies [6]
107,–,"hu8E5: humanized antibody of 8E5 with S62A, heavy chain SEQ ID NO:67, light chain SEQ ID NO:65 (antibody) heavy: QVQLQESGPGLVKPSQTLSLTCTVSGGSISSGYNWHWIRQPPGKGLEWIGYIHYTGSTNYNPALRSRVTISVDTSKNQFSLKLSSVTAADTAIYYCARIYNGNSFPYWGQGTTVTVSS[human IgG1 constant region not written out] light: DIVMTQSPDSLAVSLGERATINCKSSQSLFNSGNQKNYLTWYQQKPGQPPKLLIYWASTRESGVPDRFSGSGSGTDFTLTISSLQAEDVAVYYCQNAYSFPYTFGGGTKLEIKRTVAAPSVFIFPPSDEQLKSGTASVVCLLNNFYPREAKVQWKVDNALQSGNSQESVTEQDSKDSTYSLSSTLTLSKADYEKHKVYACEVTHQGLSSPVTKSFNRGEC",74,–,–,–,–
9.22,5,"hu8E5-2I: hu8E5 mutant, heavy chain valines 12 and 93 mutated to I; heavy chain SEQ ID NO:63, light chain SEQ ID NO:65 (antibody) heavy: QVQLQESGPGLIKPSQTLSLTCTVSGGSISSGYNWHWIRQPPGKGLEWIGYIHYTGSTNYNPALRSRVTISVDTSKNQFSLKLSSVTAADTAIYYCARIYNGNSFPYWGQGTTVTVSS[human IgG1 constant region not written out] light: DIVMTQSPDSLAVSLGERATINCKSSQSLFNSGNQKNYLTWYQQKPGQPPKLLIYWASTRESGVPDRFSGSGSGTDFTLTISSLQAEDVAVYYCQNAYSFPYTFGGGTKLEIKRTVAAPSVFIFPPSDEQLKSGTASVVCLLNNFYPREAKVQWKVDNALQSGNSQESVTEQDSKDSTYSLSSTLTLSKADYEKHKVYACEVTHQGLSSPVTKSFNRGEC",87,82.65,did not kill,21.13,significantly higher ADCC effects than ch-175D10 and ch-163E12

# Source: US11111295B2, “Antibody for anti-claudin 18A2 and use thereof” (CAFA THERAPEUTICS LIMITED, priority 2016, dated 2021)
